# Several values for one entry are separate records, joined by “and”; a condition that tells them apart may be missing. Equal entries are not always repeated.
# T1: N-terminally His6-tagged Psu^wt (pull-down bait) (Enterobacteria phage P4, UniProt P05460 1-190)
# T1 sequence: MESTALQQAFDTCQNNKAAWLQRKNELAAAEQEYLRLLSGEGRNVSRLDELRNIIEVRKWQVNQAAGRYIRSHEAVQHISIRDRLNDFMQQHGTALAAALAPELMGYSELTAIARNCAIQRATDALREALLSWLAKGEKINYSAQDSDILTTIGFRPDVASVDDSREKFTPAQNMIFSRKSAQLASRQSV
# B1: transcription termination factor ρ variant P167L (ρ^P167L), purified (enzyme)
# chain: not shown
# B2: transcription termination factor ρ^Y197A co-produced with His6-Psu^wt (pull-down prey) (enzyme)
# chain: not shown
# Key:
# cryo-EM structure = target: the molecule itself; experiment: cryo-EM structure
# [1] = target: T1, N-terminally His6-tagged Psu^wt …; experiment: pull-down
Binder,stoichiometry N (cryo-EM structure),"ρ pulled down (% of total, (E/(FT+W+E))x100) [1] [%]"
B1,7 and 6,
B2,,~25
